About 160 (5.9%) of roughly 2,700 compounds showed an effect of 50% or more. Some of the results follow.
Biological target: Nonstructural protein 3 (Zika virus) (UniProt A0A024AXB9)
[1] = PRVABC59, Concentration 15.0 uM, Number of replicates 1.0
[2] = PRVABC59, Concentration 50.0 uM, Number of replicates 1.0

UniProt A0A024AXB9, sequence (A0A024AXB9 as listed by the source): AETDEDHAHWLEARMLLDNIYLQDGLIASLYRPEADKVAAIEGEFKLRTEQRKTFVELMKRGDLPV

CCn1nnc(Cn2ncc(C3CCNCC3)c2C)n1
inhibition (PRVABC59, Concentration 49.5 uM, Number of replicates 2.0, Standard deviation 2.1917246783635673 %): 1.66% | inhibition (PRVABC59, Concentration 99.01 uM, Number of replicates 2.0, Standard deviation 3.860511564648231 %): 0.462% | inhibition (PRVABC59, Concentration 198.0 uM, Number of replicates 2.0, Standard deviation 2.2045418247553137 %): 3.04%

Cc1cc(Br)c(Cl)cc1NC(=O)c1cc(Cl)ccc1NS(=O)(=O)c1ccc(Oc2ccccc2Cl)cc1
inhibition [1]: 28.4%

CNC(=O)C[C@H]1CCCCN1S(=O)(=O)c1ccc(Oc2ccccc2Cl)cc1
inhibition (PRVABC59, Concentration 49.5 uM, Number of replicates 2.0, Standard deviation 1.74797799606614 %): 0.447% | inhibition (PRVABC59, Concentration 99.01 uM, Number of replicates 2.0, Standard deviation 2.4032055892179 %): 2.65% | inhibition (PRVABC59, Concentration 198.0 uM, Number of replicates 2.0, Standard deviation 2.03120532382153 %): 5.58%

CC(C)(C)[C@H](NC(=O)c1cc(Cl)ccc1NS(=O)(=O)c1ccc(Oc2ccccc2Cl)cc1)c1ccccc1
inhibition [1]: 57.8%

O=C(N[C@H](CO)CC1CCCCC1)c1cc(Cl)ccc1NS(=O)(=O)c1ccc(Oc2ccccc2Cl)cc1
inhibition [1]: 40.7%

CN(Cc1cccc([N+](=O)[O-])c1)C(=O)C1CCN(c2ccc(C=O)cc2)CC1
inhibition [2]: 27.7%

O=C(NCc1ccc(-c2cccs2)cc1)c1cc(Cl)ccc1NS(=O)(=O)c1ccc(Oc2ccccc2Cl)cc1
inhibition [1]: 28.5%

COc1ccccc1[C@H](C)NC(=O)C1CCN(c2ccc(C=O)cc2)CC1
inhibition (PRVABC59, Concentration 10.0 uM, Number of replicates 1.0): 25.4%

CC(C)(CO)NC(=O)c1cc(Cl)cc(NC(=O)c2ccc(O)nc2)c1
inhibition (PRVABC59, Concentration 49.5 uM, Number of replicates 2.0, Standard deviation 2.8459152851862095 %): -3.39% | inhibition (PRVABC59, Concentration 99.01 uM, Number of replicates 2.0, Standard deviation 3.166668059513274 %): -5.46% | inhibition (PRVABC59, Concentration 198.0 uM, Number of replicates 2.0, Standard deviation 2.455699952653552 %): -9.48%

CC(=O)N(C)C1CCN(C(=O)C2CCN(c3ccc(C=O)cc3)CC2)CC1
inhibition [2]: 22.7%

CCS(=O)(=O)Cn1cc(C2CCNCC2)c(C)n1
inhibition (PRVABC59, Concentration 49.5 uM, Number of replicates 2.0, Standard deviation 3.2018149908360845 %): -0.635% | inhibition (PRVABC59, Concentration 99.01 uM, Number of replicates 2.0, Standard deviation 2.9597815713467575 %): -0.319% | inhibition (PRVABC59, Concentration 198.0 uM, Number of replicates 2.0, Standard deviation 2.756719572507816 %): -0.294%

O=C(NCC[C@H](O)c1ccccc1)c1cc(Cl)ccc1NS(=O)(=O)c1ccc(Oc2ccccc2Cl)cc1
inhibition [1]: 38.9%

Cc1cc(CO)c2cccc(Cc3cccc(NC(=O)c4cnn(Cc5c(C)noc5C)c4)c3)c2n1
inhibition (PRVABC59, Concentration 49.95 uM, Number of replicates 2.0, Standard deviation 1.2645726940217121 %): -7.66% | inhibition (PRVABC59, Concentration 99.9 uM, Number of replicates 2.0, Standard deviation 1.7914774212394455 %): -9.24%

N#Cc1ccc(NC(=O)c2cccc(OCc3c(Cl)cccc3Cl)c2)cc1
inhibition (PRVABC59, Concentration 49.5 uM, Number of replicates 2.0, Standard deviation 0.20634422681357545 %): 4.22% | inhibition (PRVABC59, Concentration 99.01 uM, Number of replicates 2.0, Standard deviation 2.5272055371938618 %): 0.672% | inhibition (PRVABC59, Concentration 198.0 uM, Number of replicates 2.0, Standard deviation 2.5844097266569093 %): -0.903%

O=Cc1ccc(N2CCC(C(=O)N3CCCN(C(=O)c4cccs4)CC3)CC2)cc1
inhibition [2]: 27.4%

Cc1cc(CO)c2cccc(NC(=O)[C@@H](N)CC(N)=O)c2n1
inhibition (PRVABC59, Concentration 49.95 uM, Number of replicates 2.0, Standard deviation 2.393655071198483 %): -8.78% | inhibition (PRVABC59, Concentration 99.9 uM, Number of replicates 2.0, Standard deviation 5.685557854908542 %): 2.53%
